Test results as given in article PMC6919601, “Identification of Plasmodium dipeptidyl aminopeptidase allosteric inhibitors by high throughput screening” (PLoS ONE, 2019).
“And” between values parts separate entries of the source, which are not always exact repeats. Equal entries are not always repeated. Among all 110,000 compounds or so, about 230 (0.21%) showed an effect of 50% or more. This is one part of the list.

Each molecule was assayed against DPAP1 (Plasmodium falciparum, UniProt Q8IIJ9) (assay: primary screen, percent inhibition; read by cleavage of a fluorogenic dipeptide substrate; higher = more effect of the substance).
Sequence of DPAP1 (Q8IIJ9 whole entry, looked up): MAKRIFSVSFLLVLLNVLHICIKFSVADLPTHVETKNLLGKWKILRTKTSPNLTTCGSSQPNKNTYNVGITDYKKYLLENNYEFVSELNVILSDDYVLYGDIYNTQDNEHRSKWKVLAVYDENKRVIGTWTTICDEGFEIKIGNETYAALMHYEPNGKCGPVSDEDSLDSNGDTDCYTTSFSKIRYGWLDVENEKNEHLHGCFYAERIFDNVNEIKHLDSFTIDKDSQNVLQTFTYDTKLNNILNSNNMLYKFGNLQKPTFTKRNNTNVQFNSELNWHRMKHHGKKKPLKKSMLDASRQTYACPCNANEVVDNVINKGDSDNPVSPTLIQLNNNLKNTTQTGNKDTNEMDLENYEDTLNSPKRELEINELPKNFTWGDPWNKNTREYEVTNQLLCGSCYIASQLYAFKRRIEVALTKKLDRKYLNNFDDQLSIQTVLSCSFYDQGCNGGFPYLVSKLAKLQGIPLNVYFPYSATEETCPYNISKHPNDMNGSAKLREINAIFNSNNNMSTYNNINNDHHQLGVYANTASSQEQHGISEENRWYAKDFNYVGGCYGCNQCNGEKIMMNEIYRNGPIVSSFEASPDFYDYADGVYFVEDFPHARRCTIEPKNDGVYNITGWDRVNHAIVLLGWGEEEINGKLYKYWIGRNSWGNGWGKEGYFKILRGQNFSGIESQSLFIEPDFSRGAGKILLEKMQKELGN
Set-up: species or system P. falciparum D10 trophozoite lysates; single well
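Also: 30 min substrate incubation versus DMSO and 10 µM JCP410 controls.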

SMILES	% Inhibition @ 10 uM
COc1ccc(S(=O)(=O)N(C)CC(=O)N2CCN(Cc3ccc4c(c3)OCO4)CC2)cc1	0.826%
CCOc1ccc(C(=O)NCC2CCCO2)cc1 (stereo not drawn)	-2.94%
COc1ccc(Cl)cc1C(=O)N1N=C(C)CC1(O)C(F)(F)F (stereo not drawn)	3.24%
COc1ccc(/C=C2\C(=O)NC(=O)N(C)C2=O)c(OC)c1	7.1%
O=C(CSCc1cnn(-c2ccccc2)c1-n1cccc1)NCCc1c[nH]c2ccccc12	-4.68%
Cc1ccc(/C(=C\N2CCOCC2)S(=O)(=O)c2ccc(C)cc2)cc1	-1.79%
CC1=NN(C(=O)c2ccc(COc3ccc(Br)cc3)o2)C(O)(C(F)(F)F)C1 (stereo not drawn)	2.4%
C=C(c1ccccc1)C(C(=O)O)S(C)(=O)=O (stereo not drawn)	-0.152%
NS(=O)(=O)c1ccc(CCNC(=O)C2CCCN(c3nc4ccsc4c(=O)s3)C2)cc1 (stereo not drawn)	-3.48%
Cc1cccc(CSc2nc3ccncc3n2CC(=O)N2CC(C)CC(C)C2)c1 (stereo not drawn)	-6.01%
CN(CC(=O)Nc1ccc(Cl)cc1)S(=O)(=O)c1ccc(Br)cc1	-2.8%
O=C(Nc1ccc(Br)cc1)c1cccc(S(=O)(=O)Nc2ccccn2)c1	-0.0369%
O=C(C1CCN(c2ncnc3c2nc2n3CCCCC2)CC1)N(Cc1ccco1)C1CCCC1	1.66%
Cc1cc(NC(=O)C2CCN(c3ncnc4c3nc3n4CCCCC3)CC2)no1	2.59%
O=C(c1ccccc1)N1CCN(C2CC(=O)N(c3cccc(Br)c3)C2=O)CC1 (stereo not drawn)	-7.34%
Cc1nnc(O)c2cc3ccccc3n12	-3.53%
O=C(CSc1nnc(CNC(=O)c2ccccc2F)o1)NCc1ccc(F)cc1	-1.58%
COc1cccc(CN2CCN(C(=O)c3cccc(Cl)c3)CC2)c1	1.61%
Cc1cccc2c1-c1sc(C(=O)N3CCCC(C)C3)cc1CO2 (stereo not drawn)	1.89%
C=CCNc1ncnc2c1sc1nc3c(cc12)COC(C)(C)C3	-2.94%
CCOCCCNC(=O)/C(C#N)=C/c1c(Oc2ccc(Br)cc2)nc2ccccn2c1=O	4.06%
CC(C)c1ccc(S(=O)(=O)c2nnn3c2nc(N2CCCC2)c2ccccc23)cc1	-12.6%
O=C(Nc1ncc(Br)s1)C1CCN(S(=O)(=O)c2cccc3nonc23)CC1	5.74%
CCOC(=O)C1CCCN(Cc2ccc(OC)c(C)c2)C1 (stereo not drawn)	3.16%

SMILES	% Inhibition @ 10 uM
CCn1cc(/C=c2\sc3n(c2=O)C(c2ccccc2)C(C(=O)Nc2ccccc2)=C(C)N=3)c(C)n1 (stereo not drawn)	8.87%
CCOC(=O)c1c(C)oc2ncnc(NCc3cc(OC)ccc3OC)c12	1.15%
Cc1ccc(S(=O)(=O)Nc2ccc(S(=O)(=O)NC(C)(C)C)cc2)cc1	2.44%
COc1ccc(C2=NC(C(F)(F)F)(C(F)(F)F)N=C3C=CC(C)=CN32)cc1	-3.53%
CCOc1cc(/C=C2/NC(=O)N(CC)C2=O)ccc1OCc1ccc(C(=O)O)cc1	-3.13%
COc1ccccc1NC(=O)COc1ccccc1	1.44%
COc1cc(C)nc(NC(=O)Nc2sc(NS(=O)(=O)c3ccccc3)nc2C)n1	0.131%
COc1ccc2oc(=O)c(-c3cn4c(n3)sc3cc(Cl)ccc34)cc2c1	1.58%
Cc1nc2ccc(S(=O)(=O)N(CC(=O)NC3CCCC3)Cc3ccccc3)cc2s1	-8.32%
Brc1ccc(CN2CCN(c3ncccn3)CC2)o1	-0.828%
COCC(C)NCc1ccccc1OC (stereo not drawn)	2.91%
Cc1ccc(S(=O)(=O)N2CCC(C(=O)NCc3ccc(F)cc3)CC2)cc1	-3.12%
COc1cc(CN2CCc3ccccc3C2)cc2c1OCO2	1.87%
COc1cc(-c2cc(NC(=O)Cn3ncc4c3-c3ccccc3OC4)on2)cc(OC)c1OC	-4.21%
CC(C)CN1C(=O)c2ccccc2C(C(=O)N2CCC3(CC2)OCCO3)C1c1cccs1 (stereo not drawn)	1.69%
CCCCNC(=O)Nc1cnn(Cc2ccc(F)cc2)c1	-10.7%
CC(=O)Nc1c(C(=O)c2ccccc2)oc2ccccc12	3.34%
CC(CCCN1CCCCC1)Sc1ccc(O)cc1 (stereo not drawn)	-3.15% and -3.94%
NC(=O)COc1ccc(/C=C2\C(=O)ON=C2c2ccccc2)cc1	-4.35%
O=C(NC1CCCCCC1)C1CCCN(S(=O)(=O)c2cccs2)C1 (stereo not drawn)	-3.21%
O=c1cccc2n1C[C@H]1C[C@@H]2CN(Cc2ccc(Cl)c(Cl)c2)C1	0.132%
CCS(=O)(=O)N1CCC(c2nc3ccccc3s2)CC1	3.88%
O=C(Nc1cccc(NC(=O)c2cccc3ccccc23)c1)c1ccco1	2.7%
Oc1cccc(CN2CCN(C/C=C/c3ccccc3)CC2)c1	2.31%

SMILES	% Inhibition @ 10 uM
COc1ccccc1[C@@H](C)C[C@H](NC(=O)OCC1c2ccccc2-c2ccccc21)C(=O)NCC#N	-6.56%
Cc1ccc(Cn2c(C)c3cnn(CC(=O)NCCN4CCOCC4)c(=O)c3c2C)cc1	2.84%
COc1ccc(N(CC(=O)Nc2ccc(OC)cc2OC)S(C)(=O)=O)cc1	1.05%
CC(=O)Nc1ccc(C2C(C#N)=C(N)Oc3[nH]nc(-c4ccc(Br)cc4)c32)cc1 (stereo not drawn)	-8.6%
O=C(O)c1ccccc1C(=O)N1CCCc2ccccc21	14.9%
O=C(O)c1nn(-c2ccccc2)c(O)c1/C=C1\C=Nc2ccccc21	8.63%
O=C(c1ccc(Cl)cc1)c1ccc(CSCc2ccco2)o1	0.895%
COc1ccc(C2C(C#N)=C(N)OC3=C2C(=O)CC(C)(C)C3)c(OC)c1 (stereo not drawn)	6.08%
CCOc1ccc(NC(=O)CSc2ncc(-c3ccccc3)n2C)cc1	-0.99%
Cc1ccc(/C=C2\C(=N)N3N=C(N4CCCCC4)SC3=NC2=O)cc1	0.0579%
CCCNC(=O)c1[nH]c2cc(OC)ccc2c1Sc1ccccc1	-0.229%
COc1cc(C2C(C#N)=C(N)N(c3ccccc3)C3=C2C(=O)CC(C)(C)C3)cc(OC)c1OC (stereo not drawn)	-6.08%
Cc1coc2c1c(C)cc1oc(=O)c(CC(=O)NCCc3ccccc3)c(C)c12	0.685%
FC(F)(F)COc1nc(N2CCCCC2)nc(N2CCOCC2)n1	4.22%
CCOC(=O)C1=C(C)N(CCOC)C(=O)/C1=C\c1cc(Br)ccc1OC	10.9%
Cc1nc2c3ccccc3n3c(CCCC(=O)NC4CCCCC4)nnc3n2n1	-4.69%
CCOC(=O)c1sc(-c2ccccc2)c(C#N)c1C	2.7%
Cc1ccc2c(=O)c(C(=O)c3ccccc3)cn(CC(=O)NCc3ccco3)c2n1	1.48%
CCN1CCN(c2cc(C)nc3c(-c4ccccc4OC)c(C)nn23)CC1	0.238%
Fc1ccc(N2CCN(Cc3ccc(-c4ccccc4)cc3)CC2)cc1	-1.86%
Cc1ccc(/C=C/C(=O)NCCN2CCC(N(C)C3CCCCC3C)CC2)cc1 (stereo not drawn)	0.689%
O=C1NC(Nc2cccc(C(=O)O)c2)=N/C1=C\c1cccs1	-1.84% and 2.84%
COc1ccc([C@H]2NCC[C@@]3(O)CCCC[C@H]23)cc1OC	-3.55%
Cc1cc(/C=C2\C(=N)N3N=C(N4CCOCC4)SC3=NC2=O)c(C)n1-c1ccccc1F	0.0579%

SMILES	% Inhibition @ 10 uM
O=C(O)CSc1ccc2ccccc2c1	-10.2%
COC(=O)NCC12CC3CC(CC(C3)C1)C2	-0.239%
Cc1cc2c(n1-c1ccc(C(=O)NCc3cccnc3)cc1)CCC(C)C2 (stereo not drawn)	-3.6%
COc1ccc(C2C(C(=O)c3ccc4c(c3)OCCO4)=C(O)C(=O)N2CCN(C)C)c(OC)c1 (stereo not drawn)	-2.84%
Cn1cnc2c(=O)oc3ccc(S(=O)(=O)NCCc4ccc(Cl)cc4)cc3c21	-6.5%
CCCN1CC2=C(N=C(S)NC2c2ccccc2)/C(=C/c2ccccc2)C1 (stereo not drawn)	-5.51%
O=C(Nc1cccc(F)c1)C12CC3CC(CC(C3)C1)C2	-1.59%
COc1ccc(N2CCN(C(=O)CN(c3ccccc3Cl)S(C)(=O)=O)CC2)cc1	-2.74%
CCCN1CCC(NCCN2CCOCC2)CC1	5.03%
CCOCCCNC(=O)CCc1c(C)nc2c3c(C)cc(C)nc3nn2c1C	-2.88%
Clc1ccc(OCCCN2CCOCC2)cc1	-0.351%
COC(=O)c1sc(N2C(=O)c3oc4ccccc4c(=O)c3C2c2ccccc2F)nc1C (stereo not drawn)	6.78%
CCc1ccc(NC2=NC(=O)C(CC(=O)Nc3ccccc3OC)S2)cc1 (stereo not drawn)	-2.8%
CC(C)CNC(=O)CCCOc1ccc(Cl)cc1Cl	3.48%
C#CCOc1ccc(C2C3=C(CCCC3=O)N(CC(=O)O)C3=C2C(=O)CCC3)cc1OCC	-3.39%
COc1ccc(N(CC(=O)NC(C)c2ccccc2)S(C)(=O)=O)cc1 (stereo not drawn)	1.52%
CCOC(=O)c1ccc(NC(=O)c2ccco2)cc1	-7.42%
CSc1nc(N)nc2sc(C(=O)C34CC5CC(CC(C5)C3)C4)c(N)c12	4.97%
CCOc1ccc2[nH]c(SCC(=O)N3CCN(C(=O)c4ccc(C)cc4)C3)nc2c1	-5.38%
O=C(c1cnn(-c2ccccc2)c1-n1cccc1)N1CCN(Cc2ccccc2)CC1	-5.43%
NC(=O)C1(N2CCCCC2)CCN(C(=O)NC23CC4CC(CC(C4)C2)C3)CC1	1.61%
CCOC(=O)c1c(C)n(CCO)c2cc(O)cc(C)c12	-5.11%
O=C(O)CCCCCNC(=O)/C(=C\c1ccco1)NC(=O)c1ccco1	14.1%
Cc1ccnc(NC(=O)C(CCS(C)(=O)=O)N2Cc3ccccc3C2=O)c1 (stereo not drawn)	6.51%
